Test results as given in article PMC9911399, “Two distinct binding modes provide the RNA-binding protein RbFox with extraordinary sequence specificity”.
Where a chain is given by its changes, count along the chain named. Some of the results follow.

B1: GACGGUU (DNA:RNA)
RNA: GGGAGACCGGAAUUCAGAUUGUCCGACGGUUUUAAAUCCCGUCGUAGCCACCA
DNA 1: CAATCTGAATTCCGGTCTCCC
DNA 2: TGGTGGCTACGACGGGATT
B2: CGAGAAG (DNA:RNA)
RNA: B1 RNA with G25C, A26G, C27A, G29A, U30A, U31G
DNA 1: CAATCTGAATTCCGGTCTCCC
DNA 2: TGGTGGCTACGACGGGATT
B3: CCUCCAA (DNA:RNA)
RNA: GGGAGACCGGAAUUCAGAUUGUCCCCUCCAAUUAAAUCCCGUCGUAGCCACCA
DNA 1: CAATCTGAATTCCGGTCTCCC
DNA 2: TGGTGGCTACGACGGGATT
B4: AUAUCCC (DNA:RNA)
RNA: B3 RNA with C25A, C26U, U27A, C28U, A30C, A31C
DNA 1: CAATCTGAATTCCGGTCTCCC
DNA 2: TGGTGGCTACGACGGGATT
B5: UUACAAA (DNA:RNA)
RNA: B3 RNA with C25U, C26U, U27A, C29A
DNA 1: CAATCTGAATTCCGGTCTCCC
DNA 2: TGGTGGCTACGACGGGATT
B6: UCACUAC (DNA:RNA)
RNA: B3 RNA with C25U, U27A, C29U, A31C
DNA 1: CAATCTGAATTCCGGTCTCCC
DNA 2: TGGTGGCTACGACGGGATT
B7: CUAGUGC (DNA:RNA)
RNA: B3 RNA with C26U, U27A, C28G, C29U, A30G, A31C
DNA 1: CAATCTGAATTCCGGTCTCCC
DNA 2: TGGTGGCTACGACGGGATT
B8: GUAAACG (DNA:RNA)
RNA: B1 RNA with A26U, C27A, G28A, G29A, U30C, U31G
DNA 1: CAATCTGAATTCCGGTCTCCC
DNA 2: TGGTGGCTACGACGGGATT
B9: ACUUGGU (DNA:RNA)
RNA: B3 RNA with C25A, C28U, C29G, A30G, A31U
DNA 1: CAATCTGAATTCCGGTCTCCC
DNA 2: TGGTGGCTACGACGGGATT
B10: UGAUAUC (DNA:RNA)
RNA: B1 RNA with G25U, A26G, C27A, G28U, G29A, U31C
DNA 1: CAATCTGAATTCCGGTCTCCC
DNA 2: TGGTGGCTACGACGGGATT
B11: GCGUCGC (DNA:RNA)
RNA: B3 RNA with C25G, U27G, C28U, A30G, A31C
DNA 1: CAATCTGAATTCCGGTCTCCC
DNA 2: TGGTGGCTACGACGGGATT
B12: CCGUGUA (DNA:RNA)
RNA: B3 RNA with U27G, C28U, C29G, A30U
DNA 1: CAATCTGAATTCCGGTCTCCC
DNA 2: TGGTGGCTACGACGGGATT
B13: CGCUCAC (DNA:RNA)
RNA: B3 RNA with C26G, U27C, C28U, A31C
DNA 1: CAATCTGAATTCCGGTCTCCC
DNA 2: TGGTGGCTACGACGGGATT
B14: UUAGCAA (DNA:RNA)
RNA: B3 RNA with C25U, C26U, U27A, C28G
DNA 1: CAATCTGAATTCCGGTCTCCC
DNA 2: TGGTGGCTACGACGGGATT
B15: UUUUGAU (DNA:RNA)
RNA: B3 RNA with C25U, C26U, C28U, C29G, A31U
DNA 1: CAATCTGAATTCCGGTCTCCC
DNA 2: TGGTGGCTACGACGGGATT
B16: UGCAAGA (DNA:RNA)
RNA: B3 RNA with C25U, C26G, U27C, C28A, C29A, A30G
DNA 1: CAATCTGAATTCCGGTCTCCC
DNA 2: TGGTGGCTACGACGGGATT
B17: UGAGUUG (DNA:RNA)
RNA: B1 RNA with G25U, A26G, C27A, G29U, U31G
DNA 1: CAATCTGAATTCCGGTCTCCC
DNA 2: TGGTGGCTACGACGGGATT
B18: GCGGUCA (DNA:RNA)
RNA: B3 RNA with C25G, U27G, C28G, C29U, A30C
DNA 1: CAATCTGAATTCCGGTCTCCC
DNA 2: TGGTGGCTACGACGGGATT
B19: GACGUUA (DNA:RNA)
RNA: B1 RNA with G29U, U31A
DNA 1: CAATCTGAATTCCGGTCTCCC
DNA 2: TGGTGGCTACGACGGGATT
B20: UUUGGCC (DNA:RNA)
RNA: B1 RNA with G25U, A26U, C27U, U30C, U31C
DNA 1: CAATCTGAATTCCGGTCTCCC
DNA 2: TGGTGGCTACGACGGGATT
B21: CCUCUGU (DNA:RNA)
RNA: B3 RNA with C29U, A30G, A31U
DNA 1: CAATCTGAATTCCGGTCTCCC
DNA 2: TGGTGGCTACGACGGGATT
B22: CGCGUUU (DNA:RNA)
RNA: B1 RNA with G25C, A26G, G29U
DNA 1: CAATCTGAATTCCGGTCTCCC
DNA 2: TGGTGGCTACGACGGGATT
B23: UGGGUUU (DNA:RNA)
RNA: B1 RNA with G25U, A26G, C27G, G29U
DNA 1: CAATCTGAATTCCGGTCTCCC
DNA 2: TGGTGGCTACGACGGGATT
B24: UCAGCCU (DNA:RNA)
RNA: B3 RNA with C25U, U27A, C28G, A30C, A31U
DNA 1: CAATCTGAATTCCGGTCTCCC
DNA 2: TGGTGGCTACGACGGGATT
B25: CAGGCUC (DNA:RNA)
RNA: B1 RNA with G25C, C27G, G29C, U31C
DNA 1: CAATCTGAATTCCGGTCTCCC
DNA 2: TGGTGGCTACGACGGGATT
B26: GCCCUUC (DNA:RNA)
RNA: B1 RNA with A26C, G28C, G29U, U31C
DNA 1: CAATCTGAATTCCGGTCTCCC
DNA 2: TGGTGGCTACGACGGGATT
B27: AACGUGC (DNA:RNA)
RNA: B1 RNA with G25A, G29U, U30G, U31C
DNA 1: CAATCTGAATTCCGGTCTCCC
DNA 2: TGGTGGCTACGACGGGATT
B28: CGCCGUC (DNA:RNA)
RNA: B1 RNA with G25C, A26G, G28C, U31C
DNA 1: CAATCTGAATTCCGGTCTCCC
DNA 2: TGGTGGCTACGACGGGATT
B29: AGAAGAU (DNA:RNA)
RNA: B1 RNA with G25A, A26G, C27A, G28A, U30A
DNA 1: CAATCTGAATTCCGGTCTCCC
DNA 2: TGGTGGCTACGACGGGATT
B30: AGCGUCA (DNA:RNA)
RNA: B1 RNA with G25A, A26G, G29U, U30C, U31A
DNA 1: CAATCTGAATTCCGGTCTCCC
DNA 2: TGGTGGCTACGACGGGATT
B31: CAGCAAC (DNA:RNA)
RNA: B3 RNA with C26A, U27G, C29A, A31C
DNA 1: CAATCTGAATTCCGGTCTCCC
DNA 2: TGGTGGCTACGACGGGATT

These binders were tested against T1, RBFOX1 RRM RbFoxmut (Fox-RRM*) (Homo sapiens, UniProt Q9NWB1 109-208, R118D;E147R;N151S;E152T) (assay: EMSA; HiTS-Eq, 1 nM pool, 10 min; buffer printed only for the single-RNA assays: 10 mM Tris pH 7.5, 150 mM NaCl, 3.4 mM EDTA, 0.001% NP-40, 30 C). Settings: tags: His6 N-terminal (pET28a); label: 5' 32P.
T1 sequence: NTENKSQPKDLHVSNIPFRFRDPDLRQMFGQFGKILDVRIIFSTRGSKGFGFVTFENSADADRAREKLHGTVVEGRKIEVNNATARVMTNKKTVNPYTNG
Summary of the method: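 Purified RbFox RRM (wild type or mutant) was equilibrated for 10 min in 50 µL with 1 nM of a 5′-radiolabelled pool of RNA with 7 randomized nucleotides, its flanks annealed to DNA oligonucleotides, across increasing protein concentrations. Free RNA was separated by 8% native PAGE, excised, reverse-transcribed, PCR-barcoded and sequenced on an Illumina HiSeq 2500. Relative association constants came from read-count changes of each variant against the control reaction, normalised to the cognate motif.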

Row | Binder | binding signal
1 | B1 | 0.094 KA relative to UGCAUGU
2 | B2 | 0.101 KA relative to UGCAUGU
3 | B3 | 0.0825 KA relative to UGCAUGU
4 | B4 | 0.0954 KA relative to UGCAUGU
5 | B5 | 0.0742 KA relative to UGCAUGU
6 | B6 | 0.0731 KA relative to UGCAUGU
7 | B7 | 0.114 KA relative to UGCAUGU
8 | B8 | 0.0957 KA relative to UGCAUGU
9 | B9 | 0.143 KA relative to UGCAUGU
10 | B10 | 0.145 KA relative to UGCAUGU
11 | B11 | 0.103 KA relative to UGCAUGU
12 | B12 | 0.185 KA relative to UGCAUGU
13 | B13 | 0.0623 KA relative to UGCAUGU
14 | B14 | 0.0901 KA relative to UGCAUGU
15 | B15 | 0.0872 KA relative to UGCAUGU
16 | B16 | 0.113 KA relative to UGCAUGU

Row | Binder | binding signal
17 | B17 | 0.141 KA relative to UGCAUGU
18 | B18 | 0.118 KA relative to UGCAUGU
19 | B19 | 0.124 KA relative to UGCAUGU
20 | B20 | 0.282 KA relative to UGCAUGU
21 | B21 | 0.108 KA relative to UGCAUGU
22 | B22 | 0.102 KA relative to UGCAUGU
23 | B23 | 0.106 KA relative to UGCAUGU
24 | B24 | 0.0606 KA relative to UGCAUGU
25 | B25 | 0.0788 KA relative to UGCAUGU
26 | B26 | 0.0457 KA relative to UGCAUGU
27 | B27 | 0.117 KA relative to UGCAUGU
28 | B28 | 0.0985 KA relative to UGCAUGU
29 | B29 | 0.0749 KA relative to UGCAUGU
30 | B30 | 0.101 KA relative to UGCAUGU
31 | B31 | 0.0753 KA relative to UGCAUGU
